Some of the results follow. At the low end of the ranking, values are background and their order means little.

The target in this assay is GST-SBP-SLBP (stem-loop binding protein) (UniProt Q14493). Kind of assay: targeted RNA Bind-n-Seq.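 Note: DESeq read counts versus GST-SBP nonspecific binding control pulldown.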 The conditions noted are these: RBNS binding buffer: 25 mM Tris pH 7.5, 150 mM KCl, 3 mM MgCl2, 0.1% Tween, 0.5 mg/mL BSA, 1 mM DTT; 27 nM protein, 750 pM RNA pool; temperature not stated; high values mean tight binding.
Take “GGUCACGUCUCAAUCAACUCAUCAGAGGGGGGGAAAACCCCUUUACCCUCAACAUCAACAGCUCGCAGUCAAG”: the binding signal (log2 fold change) turned out to be 0.276. Regarding “GGUCACGUCUCAAUCAACUCUCAAGAGGGGGGGAAAACCCCUUUACCCUCAAUCUCAACAGCUCGCAGUCAAG”, the binding signal (log2 fold change) amounted to 0.197. Consider “GGUCACGUCUCAAUCAACUCAUCUUCCAGGGAAAACCCUGGCAAUCUCAACAGCUCGCAGUCAAG”, for which the binding signal (log2 fold change) was determined as 0.0651. As for “GGUCACGUCUCAAUCAACUCAACUCCCAGGGAAACCCCUGGCUAAUUCAACAGCUCGCAGUCAAG”, the figure is -0.104; as for “GGUCACGUCUCAAUCAACUCAACUCCAGGAGUUUACUCCUGCUAUGUCAACAGCUCGCAGUCAAG”, -0.0985; as for “GGUCACGUCUCAAUCAACUCUUCGGAGGGGGGGAAAACCCCUUUACCCUCAACUUCAACAGCUCGCAGUCAAG”, 0.237.

In the case of “GGUCACGUCUCAAUCAACUCAUCUUCAGGAGUUUCCUCCUGUAAUCUCAACAGCUCGCAGUCAAG”, the binding signal (log2 fold change) was determined as 0.114.

Turning to “GGUCACGUCUCAAUCAACUCUUCCUCAGGAGUUUCCUCCUGCUUUCUCAACAGCUCGCAGUCAAG”, the binding signal (log2 fold change) was -0.086. With “GGUCACGUCUCAAUCAACUCAACUUCCAGGGAAACCCCUGGCAAACUCAACAGCUCGCAGUCAAG” the figure was -0.066; with “GGUCACGUCUCAAUCAACUCAAUUCCCAGGGAAAGCCCUGGUUUACUCAACAGCUCGCAGUCAAG”, -0.096. On to “GGUCACGUCUCAAUCAACUCAUUCCCAGGAGUUUACUCCUGCAAAUUCAACAGCUCGCAGUCAAG”, for which the binding signal (log2 fold change) is 0.114. As for “GGUCACGUCUCAAUCAACUCUUUUCCAGGAGUUUACUCCUGUAUAUUCAACAGCUCGCAGUCAAG”, the figure is 0.218; as for “GGUCACGUCUCAAUCAACUCAUCCUCAGGAGUUUUCUCCUGCUUACUCAACAGCUCGCAGUCAAG”, 0.178; as for “GGUCACGUCUCAAUCAACUCAUUCCCCAGGGAAAUCCCUGGUAUUUUCAACAGCUCGCAGUCAAG”, 0.281.

“GGUCACGUCUCAAUCAACUCAUCGCCAGGAGUUUCCUCCUGCAUAUUCAACAGCUCGCAGUCAAG”: the binding signal (log2 fold change) was determined as 0.084. As for “GGUCACGUCUCAAUCAACUCAACUCCCAGGGAAACCCCUGGCUUAUUCAACAGCUCGCAGUCAAG”, the figure is 0.0582; as for “GGUCACGUCUCAAUCAACUCAUCGUCCAGGGAAAUCCCUGGCUUUUUCAACAGCUCGCAGUCAAG”, 0.0215. With “GGUCACGUCUCAAUCAACUCAAUUUCAGGAGUUUUCUCCUGUAUUCUCAACAGCUCGCAGUCAAG”, the binding signal (log2 fold change) came to 0.0556. With “GGUCACGUCUCAAUCAACUCAAUUUCAGGAGUUUCCUCCUGUUUUUUCAACAGCUCGCAGUCAAG” the figure was -0.149. With “GGUCACGUCUCAAUCAACUCCAUCGAGGGGGGGAAAACCCCUUUACCCUCACUAUCAACAGCUCGCAGUCAAG” the figure was -0.00327; with “GGUCACGUCUCAAUCAACUCUUACGAGGGGGGGAAAACCCCUUUACCCUCAAUGUCAACAGCUCGCAGUCAAG”, -0.0629. As for “GGUCACGUCUCAAUCAACUCUUUUUCAGGAGUUUUCUCCUGCUAUGUCAACAGCUCGCAGUCAAG”, the figure is 0.0978; as for “GGUCACGUCUCAAUCAACUCUUUUUCCAGGGAAAUCCCUGGUUUAUUCAACAGCUCGCAGUCAAG”, 0.00346. Regarding “GGUCACGUCUCAAUCAACUCAACUUCAGGAGUUUUCUCCUGUAAUCUCAACAGCUCGCAGUCAAG”, the binding signal (log2 fold change) is -0.00487. As for “GGUCACGUCUCAAUCAACUCCCUAGAGGGGGGGAAAACCCCUUUACCCUCAUUAUCAACAGCUCGCAGUCAAG”, the figure is 0.149; as for “GGUCACGUCUCAAUCAACUCAAUUCCCAGGGAAAGCCCUGGCUAACUCAACAGCUCGCAGUCAAG”, 0.171. For the sequence “GGUCACGUCUCAAUCAACUCAGUCUCAGGAGUUUUCUCCUGUUAAUUCAACAGCUCGCAGUCAAG”, the binding signal (log2 fold change) was -0.182.

Regarding “GGUCACGUCUCAAUCAACUCAUCCGAGGGGGGGAAAACCCCUUUACCCUCAAAAUCAACAGCUCGCAGUCAAG”, the binding signal (log2 fold change) was -0.565.

As to “GGUCACGUCUCAAUCAACUCAAGUCCAGGAGUUUACUCCUGCAAUUUCAACAGCUCGCAGUCAAG”, the binding signal (log2 fold change) is -0.0389. As for “GGUCACGUCUCAAUCAACUCGUCUUCAGGAGUUUACUCCUGCUAUUUCAACAGCUCGCAGUCAAG”, the figure is 0.0978; as for “GGUCACGUCUCAAUCAACUCUUCCUCCAGGGAAACCCCUGGCAAUGUCAACAGCUCGCAGUCAAG”, -0.0302. With “GGUCACGUCUCAAUCAACUCAACUUCCAGGGAAAGCCCUGGUUUUCUCAACAGCUCGCAGUCAAG” the figure was 0.0773; with “GGUCACGUCUCAAUCAACUCAACUUCAGGAGUUUCCUCCUGUUUACUCAACAGCUCGCAGUCAAG”, -0.11; with “GGUCACGUCUCAAUCAACUCUUUCCCCAGGGAAAACCCUGGUAAAUUCAACAGCUCGCAGUCAAG”, -0.0354. Regarding “GGUCACGUCUCAAUCAACUCUUCUUCCAGGGAAACCCCUGGCUAUUUCAACAGCUCGCAGUCAAG”, the binding signal (log2 fold change) is -0.0156.

Take “GGUCACGUCUCAAUCAACUCAUCCCCAGGAGUUUACUCCUGUAAAGUCAACAGCUCGCAGUCAAG”: the binding signal (log2 fold change) amounted to 0.128. With “GGUCACGUCUCAAUCAACUCUUCCCCAGGAGUUUUCUCCUGUAAUCUCAACAGCUCGCAGUCAAG” the figure was 0.0884.
